First the molecules themselves.
B1: GGGGUGG (DNA:RNA)
RNA: GGGAGACCGGAAUUCAGAUUGUCCGGGGUGGUUAAAUCCCGUCGUAGCCACCA
DNA 1: CAATCTGAATTCCGGTCTCCC
DNA 2: TGGTGGCTACGACGGGATT
B2: CCGGAGA (DNA:RNA)
RNA: B1 RNA with G25C, G26C, U29A, G31A
DNA 1: CAATCTGAATTCCGGTCTCCC
DNA 2: TGGTGGCTACGACGGGATT
B3: ACUUCUC (DNA:RNA)
RNA: GGGAGACCGGAAUUCAGAUUGUCCACUUCUCUUAAAUCCCGUCGUAGCCACCA
DNA 1: CAATCTGAATTCCGGTCTCCC
DNA 2: TGGTGGCTACGACGGGATT
B4: GACACAG (DNA:RNA)
RNA: B1 RNA with G26A, G27C, G28A, U29C, G30A
DNA 1: CAATCTGAATTCCGGTCTCCC
DNA 2: TGGTGGCTACGACGGGATT
B5: AUGCAUG (DNA:RNA)
RNA: B3 RNA with C26U, U27G, U28C, C29A, C31G
DNA 1: CAATCTGAATTCCGGTCTCCC
DNA 2: TGGTGGCTACGACGGGATT
B6: UAUUGGC (DNA:RNA)
RNA: B3 RNA with A25U, C26A, C29G, U30G
DNA 1: CAATCTGAATTCCGGTCTCCC
DNA 2: TGGTGGCTACGACGGGATT
B7: CCGAUUA (DNA:RNA)
RNA: B3 RNA with A25C, U27G, U28A, C29U, C31A
DNA 1: CAATCTGAATTCCGGTCTCCC
DNA 2: TGGTGGCTACGACGGGATT
B8: GCUCGGC (DNA:RNA)
RNA: B3 RNA with A25G, U28C, C29G, U30G
DNA 1: CAATCTGAATTCCGGTCTCCC
DNA 2: TGGTGGCTACGACGGGATT
B9: ACCGUCG (DNA:RNA)
RNA: B1 RNA with G25A, G26C, G27C, G30C
DNA 1: CAATCTGAATTCCGGTCTCCC
DNA 2: TGGTGGCTACGACGGGATT
B10: AUGGUCC (DNA:RNA)
RNA: B1 RNA with G25A, G26U, G30C, G31C
DNA 1: CAATCTGAATTCCGGTCTCCC
DNA 2: TGGTGGCTACGACGGGATT
B11: UAUGAUA (DNA:RNA)
RNA: B3 RNA with A25U, C26A, U28G, C29A, C31A
DNA 1: CAATCTGAATTCCGGTCTCCC
DNA 2: TGGTGGCTACGACGGGATT
B12: UGGCACC (DNA:RNA)
RNA: B1 RNA with G25U, G28C, U29A, G30C, G31C
DNA 1: CAATCTGAATTCCGGTCTCCC
DNA 2: TGGTGGCTACGACGGGATT
B13: ACCCCAC (DNA:RNA)
RNA: B3 RNA with U27C, U28C, U30A
DNA 1: CAATCTGAATTCCGGTCTCCC
DNA 2: TGGTGGCTACGACGGGATT
B14: CCUAUUU (DNA:RNA)
RNA: B3 RNA with A25C, U28A, C29U, C31U
DNA 1: CAATCTGAATTCCGGTCTCCC
DNA 2: TGGTGGCTACGACGGGATT
B15: AUCCCAG (DNA:RNA)
RNA: B3 RNA with C26U, U27C, U28C, U30A, C31G
DNA 1: CAATCTGAATTCCGGTCTCCC
DNA 2: TGGTGGCTACGACGGGATT
B16: CUCAAGU (DNA:RNA)
RNA: B1 RNA with G25C, G26U, G27C, G28A, U29A, G31U
DNA 1: CAATCTGAATTCCGGTCTCCC
DNA 2: TGGTGGCTACGACGGGATT
B17: GGCAGAG (DNA:RNA)
RNA: B1 RNA with G27C, G28A, U29G, G30A
DNA 1: CAATCTGAATTCCGGTCTCCC
DNA 2: TGGTGGCTACGACGGGATT
B18: UCAUGUU (DNA:RNA)
RNA: B3 RNA with A25U, U27A, C29G, C31U
DNA 1: CAATCTGAATTCCGGTCTCCC
DNA 2: TGGTGGCTACGACGGGATT
B19: GCGCCCU (DNA:RNA)
RNA: B3 RNA with A25G, U27G, U28C, U30C, C31U
DNA 1: CAATCTGAATTCCGGTCTCCC
DNA 2: TGGTGGCTACGACGGGATT
B20: GAUCAGU (DNA:RNA)
RNA: B1 RNA with G26A, G27U, G28C, U29A, G31U
DNA 1: CAATCTGAATTCCGGTCTCCC
DNA 2: TGGTGGCTACGACGGGATT

Changes are numbered by the printed parent chain; changes in the protein carry UniProt numbers. The list shows a part of the results.

The assay has as its target T1, RBFOX1 RRM RbFoxmut (Fox-RRM*) (Homo sapiens, UniProt Q9NWB1 109-208, R118D;E147R;N151S;E152T).
T1 sequence: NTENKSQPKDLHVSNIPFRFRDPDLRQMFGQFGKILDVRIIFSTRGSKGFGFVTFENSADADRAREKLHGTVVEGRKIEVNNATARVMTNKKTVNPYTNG
Kind of assay: EMSA; HiTS-Eq, 1 nM pool, 10 min; buffer printed only for the single-RNA assays: 10 mM Tris pH 7.5, 150 mM NaCl, 3.4 mM EDTA, 0.001% NP-40, 30 C. To be noted: tags: His6 N-terminal (pET28a); label: 5' 32P. Put shortly:
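These values rest on relative association constants, computed from read-count changes of each RNA species versus the control reaction and normalised to the cognate motif. Reads came from free RNA recovered by 8% native PAGE after purified RbFox RRM (wild type or mutant) at increasing concentrations was equilibrated for 10 min in 50 µL with 1 nM of a 5′-radiolabelled pool with 7 randomized nucleotides and DNA-annealed flanks.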
Take B1: the binding signal was 0.121 KA relative to UGCAUGU.
The value for B2 was 0.0928 KA relative to UGCAUGU; that for B3 was 0.0475 KA relative to UGCAUGU; that for B4 was 0.0627 KA relative to UGCAUGU.
With B5 the figure was 0.951 KA relative to UGCAUGU; with B6, 0.122 KA relative to UGCAUGU.
The value for B7 was 0.116 KA relative to UGCAUGU.
As to B8, the binding signal was 0.117 KA relative to UGCAUGU.
The value for B9 was 0.136 KA relative to UGCAUGU.
With B10 the figure was 0.0995 KA relative to UGCAUGU; with B11, 0.0632 KA relative to UGCAUGU.
With B12 the figure was 0.113 KA relative to UGCAUGU; with B13, 0.104 KA relative to UGCAUGU.
B14: the binding signal is 0.0808 KA relative to UGCAUGU.
With B15, the binding signal was 0.109 KA relative to UGCAUGU.
The value for B16 was 0.139 KA relative to UGCAUGU; that for B17 was 0.0728 KA relative to UGCAUGU.
With B18 the figure was 0.125 KA relative to UGCAUGU.
With B19 the figure was 0.0571 KA relative to UGCAUGU; with B20, 0.0801 KA relative to UGCAUGU.
